Here are results for 6 molecules from article PMC12136788.

The chains are these.
T1: UNK ZnF1-6 (called full-length) (human, UniProt Q9C0B0 30-357)
T1 sequence: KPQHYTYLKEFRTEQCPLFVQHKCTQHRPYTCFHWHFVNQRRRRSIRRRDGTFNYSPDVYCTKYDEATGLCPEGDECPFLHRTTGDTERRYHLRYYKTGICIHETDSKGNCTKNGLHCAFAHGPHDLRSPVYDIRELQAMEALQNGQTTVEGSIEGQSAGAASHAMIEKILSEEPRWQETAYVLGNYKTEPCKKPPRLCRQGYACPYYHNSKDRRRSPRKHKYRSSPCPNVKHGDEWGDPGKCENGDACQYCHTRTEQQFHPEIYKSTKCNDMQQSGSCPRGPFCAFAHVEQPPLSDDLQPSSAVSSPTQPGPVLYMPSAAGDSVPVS

B1: chr4:102887774:102887875:+|3pUTR|ENSG00000145354|msi1|total|mutant (ssRNA)
RNA: GGGAGUUCUACAGUCCGACGAUCUUGGUUUUGAUAAUCUGAAGUGUUUUUUUCUCGUUUUGGCCUUCCAAACUGCAUUUGGUCCGGUGAAUUAAGAAAAAUAUUGCCAUCAAGAAUUACUUGUGUUUUCACAGAGACCGACUCCAACAGAGGAUUGAGCAUCA
B2: chr2:24000049:24000165:+|3pUTR|ENSG00000173960|unk|total|mutant (ssRNA)
RNA: GGGAGUUCUACAGUCCGACGAUCGCCGCAUAUGACUGGAAACUAUAUUCAGUGCACUUUCUCCAAAAGACUACCCAGAAAAACCGACUUAUUUUCAAAUACCAGUUAUCAAGAUAUAUUAAACCGCUGUAUUGUUCCGAAUCUCAACAGAGGAUUGAGCAUCA
B3: chr15:50499066:50499164:+|CDS_3pUTR|ENSG00000138592|msi1_unk|FALSE|overlapping (ssRNA)
RNA: GGGAGUUCUACAGUCCGACGAUCUACUUCAUUGGGACCACGAGUAACUGAUGUAGCCACAUAAGGAGACAUAGGUUAUAAACUAGUUAUCUUUUAAAAGGCUCAGCAACACAACUCUUGAAAUGCUUAUCAGGAUAAUGGUAGCAACAGAGGAUUGAGCAUCA
B4: chrX:102369585:102369736:-|CDS|ENSG00000269437|control|control|control (ssRNA)
RNA: GGGAGUUCUACAGUCCGACGAUCUGCGAAAGAAGAAUGAAAUGGCAUAGUGAAGACGAAAUCCGUAUUACCACGUGGAGAAAUAGAAAACCUCCGGAGAGAAAAAUGAGUCAGAACACACAGGAUGGAUACACAAGGAACUGGCAACAGAGGAUUGAGCAUCA
B5: chr3:64018827:64018930:-|CDS|ENSG00000163636|unk|total|mutant (ssRNA)
RNA: GGGAGUUCUACAGUCCGACGAUCUGAACUCAUGGAUUAUAAAACAUUUGUGACUUAUACUGUCUAUGUCAGUAUGAUUGCCUCCGAAAGACCAGAUCUCAGGGAAAAGGUAAUGACCAAACUUUAAUACUCAAAUUUAAAGACCAACAGAGGAUUGAGCAUCA
B6: chr7:77749912:77750028:+|CDS|ENSG00000187257|unk|FALSE|unique (ssRNA)
RNA: GGGAGUUCUACAGUCCGACGAUCUGCAGCUUUCUACGUGAUGGGUAUUGUUCAUGGGGCAGCUACUUAUUUACCUGACUUUUUAGACUAUUUUUCAUUUAAUUUUCCCAAUUCACCAGUGAAAAUGGAGAUAUUGGGAAAGAACAACAGAGGAUUGAGCAUCA

This is one part of the list.

In the experiment the target is T1, UNK ZnF1-6 (called full-length). The experiment is described as follows: nsRBNS (natural sequence RNA bind-n-seq); RBNS binding buffer (assumed for nsRBNS): 25 mM Tris pH 7.5, 150 mM KCl, 3 mM MgCl2, 0.01% Triton X-100, 500 ug/ml BSA, 20 U/ml SUPERase-In, 4 C; UNK is unkempt and MSI1 is Musashi-1; names of the RNAs are library labels; protein concentration not given here; high values mean tight binding.
As to B1, the binding signal was determined as 0.367 enrichment R.
With B2, the binding signal turned out to be 0.877 enrichment R.
The molecule B3 gave a binding signal of 0.742 enrichment R.
Take B4: the binding signal was 0.879 enrichment R.
Molecule B5 gave a binding signal of 0.469 enrichment R.
With B6 the figure was 1.83 enrichment R.
